Structures are written as SMILES. In all, about 48,000 compounds went through this assay and about 550 (1.1%) were called active. Another 4% or so got no clear call; they are omitted. No stated cut-off is given here; in the data, active means potency below about 15 µM; inconclusive means mostly about 16 µM to 33 µM; inactive means weaker than that. This is one part of the list.

This passage reports Potency results from PubChem BioAssay AID360 (National Center for Advancing Translational Sciences (NCATS), 2006).
Potency means the concentration at half of the fitted maximal effect.

Chain of UniProt P04062 (P04062 whole entry, looked up): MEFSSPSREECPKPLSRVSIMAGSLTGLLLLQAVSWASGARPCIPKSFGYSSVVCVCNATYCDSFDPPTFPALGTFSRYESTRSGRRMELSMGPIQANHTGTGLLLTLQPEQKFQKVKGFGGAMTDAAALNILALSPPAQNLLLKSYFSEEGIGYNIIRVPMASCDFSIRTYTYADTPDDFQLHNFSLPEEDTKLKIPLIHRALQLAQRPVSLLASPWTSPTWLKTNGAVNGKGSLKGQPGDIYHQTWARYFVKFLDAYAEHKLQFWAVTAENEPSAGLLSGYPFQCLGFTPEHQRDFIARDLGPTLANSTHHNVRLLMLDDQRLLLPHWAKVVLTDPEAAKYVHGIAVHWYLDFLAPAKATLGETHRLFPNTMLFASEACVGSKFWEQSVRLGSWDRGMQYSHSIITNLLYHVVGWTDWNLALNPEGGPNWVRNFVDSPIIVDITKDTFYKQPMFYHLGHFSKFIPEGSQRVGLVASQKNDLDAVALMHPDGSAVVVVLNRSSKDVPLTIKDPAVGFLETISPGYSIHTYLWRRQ

The assay addresses Lysosomal acid glucosylceramidase (Homo sapiens) (UniProt P04062). The assay can be described thus: Glucocerebrosidase.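 Further: the screen sought inhibitors.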 Conditions: purified enzyme, resorufin glucoside fluorescence (screen aimed at inhibitors), 20 min. The procedure, abridged:
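Compounds titrated against 0.2 nM normal enzyme, 30 uM resorufin beta-D-glucopyranoside substrate, citrate/phosphate buffer with taurocholate and tween-20, pH 5.9. Reaction ran 20 min at room temperature; fluorescence (Ex 548/Em 600) gave AC50.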
For the molecule `Cc1ccc(-n2c(Cc3cccs3)nnc2SCC(=O)OC(C)C)cc1`, the Potency was inactive: > 76.9 µM.
Under `CCCN1C(=O)C(NC(=O)c2ccncc2)(C(F)(F)F)C2=C1CC(C)(C)CC2=O` (stereo not drawn) stands inactive: > 76.9 µM.
Take `O=C(CSc1nnc(-c2ccccn2)n1Cc1ccco1)c1ccc(-c2ccccc2)cc1`: the Potency is inactive: > 76.9 µM.
Under `CCN(Cc1ccncc1)S(=O)(=O)c1ccc(C(C)=O)cc1` stands inactive: > 76.9 µM.
With `COc1ccc(OC)c2c(C)cc(N3CCN(C(=O)c4ccc(F)cc4)CC3)nc12`, the Potency result was “inactive”.
Then `C/C(N)=C(/C#N)C(=O)CSc1nnc(Nc2cccc(C)c2)s1`, with inactive: > 76.9 µM.
Then `CCCNC(=O)NC1C(NC(=O)NCCC)N(C)C(=O)N1C` (stereo not drawn), with inactive: > 76.9 µM.
Regarding `CC(NC(N)=O)C12CC3CC(CC(C3)C1)C2` (stereo not drawn), the Potency is inactive: > 76.9 µM.
Under `Cc1nc2c(C(=O)N3CCCCC3)cnn2c(C)c1Cc1ccccc1F` stands inactive: > 76.9 µM; under `CC(C)OC(=O)CSc1nnc(-c2ccc(Cl)cc2Cl)o1`, inactive: > 76.9 µM; under `c1ccc(CCC2=NCCn3cccc32)cc1`, inactive: > 76.9 µM.
Consider `O=C(NCC1CCCO1)C1CCCCN1S(=O)(=O)c1ccc(F)cc1` (stereo not drawn), for which the Potency is inactive: > 76.9 µM.
Then `CCOC(=O)Cn1nnnc1CN(Cc1ccc(OC)cc1)Cc1cc2cc(C)ccc2[nH]c1=O`, with “inactive”; and `COC(=O)c1ccccc1NC(=O)CN(C)S(=O)(=O)c1ccc(OC)c(C)c1`, with inactive: > 76.9 µM.
Under `CCC(=O)Nc1ccc(N2CCN(Cc3ccccc3)CC2)cc1` stands inactive: > 76.9 µM; under `CCC(=O)N1c2ccccc2NC2=C(C(=O)CCC2)C1c1ccc(N(C)C)cc1` (stereo not drawn), inactive: > 76.9 µM; under `CN(C)c1nc(C(=O)Nc2ccccc2)nc(N(C)C)n1`, inactive: > 76.9 µM.
Under `Cc1ccc(SCCC(=O)N(C)C)cc1` stands inactive: > 76.9 µM.
Turning to `Cc1cccc(NC(=O)NCC(c2cccnc2)N2CCOCC2)c1` (stereo not drawn), the Potency is inactive: > 76.9 µM.
Then `Cc1ccc2[nH]c(=O)c(CNC(C)C)cc2c1`, with inactive: > 76.9 µM; and `Cc1ccc(-n2[nH]c(C)c(/C=N/n3c(C)nc4ccccc4c3=O)c2=O)cc1`, with inactive: > 76.9 µM; and `Cc1oc(-c2cccs2)[n+]([O-])c1C`, with inactive: > 76.9 µM.
Then `O=C(O)CCCCCn1c(SCC(=O)N2CCCC2)nc2ccsc2c1=O`, with inactive: > 76.9 µM; and `CCOC(=O)c1cccc(N2C(=O)c3ccccc3S2(=O)=O)c1`, with inactive: > 76.9 µM.
Under `O=C(CSc1nc2ccccc2o1)Nc1ccc(N2CCOCC2)cc1` stands inactive: > 76.9 µM; under `CC(C)C(=O)Nc1cc2c(cc1C(=O)c1ccccc1)OCCO2`, inactive: > 76.9 µM.
On to `CS(=O)c1nc(-c2ccc(Br)cc2)cc(-c2ccccc2)c1C#N` (stereo not drawn), for which the Potency was inactive: > 76.9 µM.
Take `COc1ccc(NC(=O)c2cc(Cl)ccc2NC(=O)c2ccco2)c(OC)c1`: the Potency was inactive: > 76.9 µM.
Under `COc1ccc2[nH]c(=O)c(CN(C)C(=O)C3CCCCC3)cc2c1` stands inactive: > 76.9 µM; under `O=C(Nc1nc(-c2cccs2)cs1)c1ccc(S(=O)(=O)N2CCCC2)cc1`, inactive: > 76.9 µM.
Then `COCCn1c(C)cc(C(=O)COC(=O)CCc2ccc(S(=O)(=O)N3CCOCC3)cc2)c1C`, with inactive: > 76.9 µM; and `CCOC(=O)N1CC=C2C(C#N)=C(N)C(C#N)(C#N)[C@H](c3ccc(OC(C)C)c(OCC)c3)[C@H]2C1`, with inactive: > 76.9 µM.
With `COc1ccc2cc(CN(CCO)C(=O)c3ccc(Br)cc3)c(=O)[nH]c2c1`, the Potency was inactive: > 76.9 µM.
Under `CC1OC(Nc2ccc(OC(F)(F)F)cc2)C(O)C(O)C1O` (stereo not drawn) stands inactive: > 76.9 µM; under `O=C1CC(c2cccs2)Sc2nc3ccccc3n21` (stereo not drawn), inactive: > 76.9 µM.
Then `COc1ccc(C)cc1NC(=O)c1ccc2c(c1)OCO2`, with inactive: > 76.9 µM; and `Cc1ccc(S(=O)(=O)Nc2ccccc2CNc2c(C)n(C)n(-c3ccccc3)c2=O)cc1`, with inactive: > 76.9 µM; and `COC(=O)CSc1nnc(CNC(=O)c2cccc(C)c2)n1-c1ccccc1OC`, with inactive: > 76.9 µM.
On to `N#Cc1cc2c(nc1SCc1ccccc1)CCCC2=O`, for which the Potency was inactive: > 76.9 µM.
Under `CCOc1ccccc1CNC(=O)CCN1C(=O)COc2ccccc21` stands inactive: > 76.9 µM; under `Cc1cccc(NC2(C(F)(F)F)N=C3SCCN3C2=O)n1` (stereo not drawn), inactive: > 76.9 µM; under `CCOC(=O)Nc1cc(OCC)c(NC(=O)C2CC2)cc1OCC`, inactive: > 76.9 µM.
For the molecule `CCc1ccc2oc(-c3cc(N=Cc4cccc(OC)c4O)ccc3O)nc2c1`, the Potency is inactive: > 76.9 µM.
Then `Cc1cc(NC(=O)CCn2c(=O)sc3ccccc32)no1`, with inactive: > 76.9 µM.
As for `COc1cc(C(=O)Nc2ccccc2N2CCN(S(C)(=O)=O)CC2)cc(OC)c1OC`, the Potency is inactive: > 76.9 µM.
Then `Cc1cc2c(=O)n(Cc3ccco3)c(SCC(=O)NCc3ccco3)nc2s1`, with inactive: > 76.9 µM; and `O=c1c2ccccc2nc(-c2ccccc2)n1CCCN1CCOCC1`, with inactive: > 76.9 µM.
For the molecule `COc1cc2c(C(=O)NCc3ccc4c(c3)OCO4)cn(C)c(=O)c2cc1OC`, the Potency was inactive: > 76.9 µM.
Then `COc1ccc(N2C(N)=C(C#N)C(c3cccnc3)C3=C2CC(C)(C)CC3=O)cc1` (stereo not drawn), with inactive: > 76.9 µM; and `Cc1cc(C(=O)Nc2cccc(O)c2)c(C)o1`, with inactive: > 76.9 µM.
Under `Cc1ccc2cc3c(NC(=O)c4ccco4)nn(CC(C)C)c3nc2c1` stands inactive: > 76.9 µM; under `COCc1nnc(NC(=O)CC(C)c2ccccc2)s1` (stereo not drawn), inactive: > 76.9 µM; under `CCNc1cc(=O)n(C)c(=O)n1C`, inactive: > 76.9 µM.
`Cn1cnc2c1c(=O)n(CC(O)CO)c(=O)n2C` (stereo not drawn): the Potency was inactive: > 76.9 µM.
Then `COCCNC(=O)CN1CCC(NC(=O)Nc2ccccc2)CC1`, with inactive: > 76.9 µM.
`CCN(CC)c1ccc(C2C(C(=O)OC)=C(C)NC(C)=C2C(=O)OC)cc1`: the Potency is inactive: > 76.9 µM.
Then `Cc1nc2cc(NC(=O)NCCC3=CCCCC3)ccc2o1`, with inactive: > 76.9 µM; and `CCOC(=O)C1CCCN(C2CC(=O)N(c3cccc(C(F)(F)F)c3)C2=O)C1` (stereo not drawn), with inactive: > 76.9 µM.
